Measurements as given in the supplement of paper PMC4166925.
± gives the standard deviation of the averaged measurements. Whole data set: some 33,000 sequences, median “E-score (dimensionless, -0.5 to 0.5)” near -0.049, cut for the highest 2% near 0.37. Some of the results follow.

Test system: T1, PmTbr T-box DNA-binding domain (GST fusion)
T1 sequence: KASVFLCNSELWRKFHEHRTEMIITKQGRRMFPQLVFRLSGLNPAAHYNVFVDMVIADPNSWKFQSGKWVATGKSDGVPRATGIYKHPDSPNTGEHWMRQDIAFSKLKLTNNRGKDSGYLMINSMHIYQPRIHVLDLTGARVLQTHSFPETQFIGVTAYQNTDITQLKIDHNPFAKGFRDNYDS
Test: PBM E-score of 8-mer (E-score (dimensionless, -0.5 to 0.5)); Tbr is Tbrain of the sea star Patiria miniata (Pm) or the sea urchin Strongylocentrotus purpuratus (Sp); higher = stronger binding preference; most listed sequences are background and not binding sites
Conditions: the construct has about 5 more residues each side
Outline: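 GST-fused Tbr T-box DNA-binding domains (the whole T-box plus about five flanking residues) were expressed in BL21 E. coli at 20 °C and purified by glutathione affinity chromatography. Universal Agilent oligonucleotide arrays were made double-stranded by primer extension, incubated with 200 nM protein in PBS (pH 7.5), then scanned and quantified. Every ungapped 8-mer was scored from probe intensities. The Universal PBM Analysis Suite gave each word an enrichment E-score, averaged over duplicate arrays.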

Sequence	PBM E-score of 8-mer
GCAAACCC	-0.0342 ± 0.058
GTAAGGGA	0.0358 ± 0.00031
AAACGGGT	-0.107 ± 0.017
CCTATAGG	-0.0964 ± 0.022
CACCGCCC	0.11 ± 0.088
CTTGCTGA	0.0928 ± 0.0061
CGAGTGTA	0.188 ± 0.0038
CGCGAGTC	0.268 ± 0.043
ACACGGAT	0.0988 ± 0.011
CTAGGACA	0.1104 ± 0.00076
ACAATACT	0.0722 ± 0.013
AAGCTTCA	-0.0871 ± 0.073
TGCATAAA	-0.213 ± 0.022
AAGACTCT	-0.262 ± 0.0039
GGTTGTCA	0.342 ± 0.0085
AGGACCTC	-0.194 ± 0.072
AGTTCCGA	-0.0912 ± 0.015
ACTTCGTC	0.129 ± 0.013
GCATTTGA	-0.186 ± 0.053
ACGGGGTA	-0.167 ± 0.036
CCGACTTC	-0.233 ± 0.043
CACGAAGC	-0.0959 ± 0.073
ACTTGCCT	0.0601 ± 0.071
GTTTCCCA	0.036 ± 0.024
GATGCGAC	0.187 ± 0.041

Sequence	PBM E-score of 8-mer
AAAATTCC	0.00113 ± 0.065
CGCGGCAC	0.276 ± 0.0071
GAACAGCA	0.00265 ± 0.038
ACAGTCGT	0.0487 ± 0.021
GTGGCGAA	0.274 ± 0.0057
GAAACGTA	-0.107 ± 0.019
CCGAGGAC	-0.0595 ± 0.058
ATGACAAC	0.241 ± 0.054
AAGCGACT	-0.133 ± 0.011
GCTCAACA	-0.00527 ± 0.061
ATACAAAT	-0.244 ± 0.043
TAATAGCA	0.105 ± 0.025
CGATGAAG	0.02 ± 0.026
AAGCATCG	-0.225 ± 0.035
ATCTTCCG	0.0521 ± 0.053
ACCGATCT	-0.0688 ± 0.066
ATTTCTTA	-0.18 ± 0.061
GCCCCCGA	-0.107 ± 0.028
ACTGTTGG	0.109 ± 0.044
AGACGAAT	0.00553 ± 0.0032
CCTTAACA	0.148 ± 0.081
AGGGGATA	-0.16 ± 0.06
CCGCAATC	-0.0639 ± 0.0093
AGAGTCTC	0.0383 ± 0.056
ATTTAGTG	0.0687 ± 0.029

Sequence	PBM E-score of 8-mer
AGGTGTAT	0.328 ± 0.0044
ATGATATA	-0.0568 ± 0.0053
CTACTCCC	-0.31 ± 0.027
CGTAAACG	0.0455 ± 0.046
CTTGGGAC	-0.1559 ± 0.00096
ATAGCACA	0.174 ± 0.035
ACGGTTAC	-0.0754 ± 0.028
GACCGCCC	-0.3013 ± 3.5e-05
CTACCGTA	-0.066 ± 0.0093
ACCGTTTC	-0.0847 ± 0.02
AAGTCTGT	-0.0429 ± 0.043
CGGGTTGC	0.122 ± 0.081
CCGACAGC	0.0678 ± 0.046
ATACGAAG	-0.226 ± 0.059
AAATAAAC	-0.0315 ± 0.039
CCCTTTAG	0.0181 ± 0.024
CTACTAGA	-0.239 ± 0.057
CAAATATG	-0.0284 ± 0.035
CTAACCAG	0.0114 ± 0.0043
AAGACGAA	-0.247 ± 0.023
TAATGCAA	-0.067 ± 0.06
ATCTCTCC	-0.218 ± 0.0088
AAACAGGA	-0.146 ± 0.0093
GCCAACGC	0.106 ± 0.038
GATCAATC	-0.153 ± 0.0053

Sequence	PBM E-score of 8-mer
CAGCGCTG	0.0573 ± 0.064
CCGTAGGA	-0.121 ± 0.073
CGTGGCCA	-0.000825 ± 0.032
AATGCGCC	0.0919 ± 0.1
GGAAGGCA	-0.117 ± 0.096
CCATTTTA	0.0304 ± 0.031
ATTTCTCC	-0.0485 ± 0.011
AACTTTCT	0.00835 ± 0.085
ATAGTAGC	-0.108 ± 0.061
CGGATCGC	-0.0419 ± 0.036
GGACGGCA	-0.0763 ± 0.029
GTGTGACA	0.4709 ± 0.0035
AAGCTGAA	-0.212 ± 0.041
ACTTGCCG	0.145 ± 0.015
ATCGAGTG	0.167 ± 0.007
GGAGCACC	-0.0985 ± 0.042
CTGACAAC	0.257 ± 0.012
AGTATGGC	-0.0112 ± 0.037
AGGTTTCG	-0.0164 ± 0.093
ATCAGGAC	-0.317 ± 0.0084
ATCGCCGC	-0.0805 ± 0.038
GTCCGCGA	0.126 ± 0.042
AAGGTGCC	0.405 ± 0.0071
ACGGCTTC	-0.09216 ± 0.00057
GAGAATGA	-0.0166 ± 0.016

Sequence	PBM E-score of 8-mer
GTTGATAA	0.0639 ± 0.084
GGCCTCCA	-0.268 ± 0.014
CGACCACG	0.00422 ± 0.031
CTGCAGCC	-0.105 ± 0.016
TCTTGTCA	0.207 ± 0.023
AACGTCCG	-0.24 ± 0.012
GATCACTA	-0.128 ± 0.0032
CGATAATA	0.0353 ± 0.00066
TAAATTTA	0.0181 ± 0.14
CGTCCGTC	-0.149 ± 0.077
AGTCCGCA	0.017 ± 0.034
CTTCGTCC	0.00228 ± 0.079
GAGCGGTA	-0.17 ± 0.035
ACAAAAGA	-0.176 ± 0.037
TAAAGCGA	0.033 ± 0.058
ATGGGTAC	-0.173 ± 0.035
CACGATGC	0.116 ± 0.041
AACCATCT	-0.158 ± 0.031
AGTTTAGG	-0.0822 ± 0.012
AATGCAGA	-0.205 ± 0.01
CCCCTCGC	-0.0134 ± 0.0076
CGTTCGAA	-0.203 ± 0.075
GCTGATAA	0.0336 ± 0.024
GGACTACA	-0.285 ± 0.0066
CGGAAAAC	-0.214 ± 0.053

Sequence	PBM E-score of 8-mer
CATAGATC	-0.153 ± 0.019
TGGTGTAA	0.28 ± 0.011
AAACTACG	-0.105 ± 0.073
AACTAAAA	-0.0488 ± 0.026
CACTCCCA	0.158 ± 0.05
CGCATGAG	-0.0134 ± 0.013
AACGTATA	-0.0512 ± 0.012
ATTCGTCG	0.189 ± 0.02
ATTACAAT	-0.283 ± 0.0071
ATGGCTGG	-0.125 ± 0.083
ACATCCGT	0.0963 ± 0.035
CCGGGGTC	-0.0674 ± 0.15
ATCAAGGC	-0.141 ± 0.09
ACGCAACA	0.199 ± 0.013
GATCACCA	0.0245 ± 0.015
CTCAGCAC	0.156 ± 0.063
CACCAGCA	0.171 ± 0.064
AAACGGCC	-0.239 ± 0.026
CCTGGAAA	-0.133 ± 0.014
CGGGTTGA	-0.0346 ± 0.0013
TACGCGTA	0.234 ± 0.036
GTGGAGAA	0.0155 ± 0.022
CCTTCGCA	0.329 ± 0.0034
GCTACCTA	0.0587 ± 0.017
GTTCCCTA	-0.236 ± 0.019

Sequence	PBM E-score of 8-mer
ACTACGAA	-0.0903 ± 0.018
GTGATGCA	0.06 ± 0.12
GGTGCTCA	-0.112 ± 0.025
AATCTAGA	0.187 ± 0.027
CGGACCGC	-0.0357 ± 0.066
AGAAGCAC	-0.0745 ± 0.019
ATCTAACG	0.0772 ± 0.042
AGTAGGAC	-0.252 ± 0.017
ACGTTAAG	-0.161 ± 0.018
ACTGATAG	0.0376 ± 0.032
TGCCACCA	0.236 ± 0.018
CGGATACC	-0.124 ± 0.0024
ACCTAAGC	-0.042 ± 0.037
CGTTCTCC	-0.19 ± 0.048
AGATCAGA	-0.311 ± 0.016
ACGTCCAC	-0.0664 ± 0.037
AAAGGTAT	-0.0701 ± 0.061
AGCAGTCG	0.019 ± 0.038
ACCGAAAT	-0.108 ± 0.048
AGCCACCC	-0.183 ± 0.038
GAACCAAA	-0.198 ± 0.059
AGCATAAA	-0.12 ± 0.062
